# Reference: paper PMC4336329 (PLoS ONE, 2015)
# Hit rate of the full screen: of about 310,000 compounds, about 2,200 (0.71%) showed an effect of 50% or more. The effect is printed as a negative number. The list shows a part of the results.
# Biological target: human ether-à-go-go-related gene (hERG) potassium channel (human, UniProt Q12809)
# Assay: primary screen, population patch clamp on CHO cells stably expressing hERG
# Chain of human ether-à-go-go-related gene (hERG) potassium channel (Q12809 whole entry, looked up): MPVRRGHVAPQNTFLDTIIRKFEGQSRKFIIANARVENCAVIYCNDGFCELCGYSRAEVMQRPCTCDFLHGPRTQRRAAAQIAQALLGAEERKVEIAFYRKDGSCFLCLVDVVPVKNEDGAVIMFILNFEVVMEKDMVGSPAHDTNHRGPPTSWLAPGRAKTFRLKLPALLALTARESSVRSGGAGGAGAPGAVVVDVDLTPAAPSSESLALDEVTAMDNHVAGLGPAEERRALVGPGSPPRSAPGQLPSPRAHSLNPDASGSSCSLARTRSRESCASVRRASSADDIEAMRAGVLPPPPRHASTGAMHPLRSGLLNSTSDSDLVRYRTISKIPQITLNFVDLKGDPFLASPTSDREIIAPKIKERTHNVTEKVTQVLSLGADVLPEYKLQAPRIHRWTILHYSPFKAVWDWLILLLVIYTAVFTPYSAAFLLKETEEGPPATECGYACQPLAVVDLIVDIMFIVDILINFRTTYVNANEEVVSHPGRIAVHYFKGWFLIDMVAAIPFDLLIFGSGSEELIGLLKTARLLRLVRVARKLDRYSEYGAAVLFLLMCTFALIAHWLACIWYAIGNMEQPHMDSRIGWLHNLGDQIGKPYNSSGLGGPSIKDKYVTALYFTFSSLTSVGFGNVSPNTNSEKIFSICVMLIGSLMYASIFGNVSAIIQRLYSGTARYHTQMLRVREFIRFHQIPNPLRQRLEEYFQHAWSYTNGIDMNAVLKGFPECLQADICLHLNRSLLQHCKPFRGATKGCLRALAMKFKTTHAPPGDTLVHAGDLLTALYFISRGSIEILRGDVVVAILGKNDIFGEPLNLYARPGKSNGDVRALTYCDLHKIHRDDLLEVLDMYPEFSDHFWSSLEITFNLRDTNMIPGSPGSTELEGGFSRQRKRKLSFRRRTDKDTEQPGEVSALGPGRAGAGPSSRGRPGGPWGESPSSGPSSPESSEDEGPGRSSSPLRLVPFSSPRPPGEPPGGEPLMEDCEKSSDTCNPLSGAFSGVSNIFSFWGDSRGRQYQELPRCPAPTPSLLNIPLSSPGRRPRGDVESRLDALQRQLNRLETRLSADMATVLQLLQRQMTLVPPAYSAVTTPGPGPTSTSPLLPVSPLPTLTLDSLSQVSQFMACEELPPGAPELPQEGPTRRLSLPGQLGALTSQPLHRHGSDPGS
row,SMILES,"hERG current change (%, negative = inhibition) at 1uM [%]"
1,O=C(OCC(=O)N1CCCCCC1)c1ccc([N+](=O)[O-])cc1Cl,10.9
2,CC1(C)OC(c2ccccc2)=C/C(=C\C=N\NC(=O)c2ccncc2)O1,10.4
3,Cc1ccc(S(=O)(=O)N2CCN(C(=O)C3=COCCO3)CC2)cc1C,-7.86
4,Cc1nn(Cc2c(F)c(F)c(F)c(F)c2F)c(C)c1NC(=O)c1c([N+](=O)[O-])c(C)nn1C,18.8
5,O=C1CCC([N+](=O)[O-])C(c2ccc(Br)cc2)N1 (stereo not shown),15.1
6,O=C(CN1CCN(c2ccccc2)CC1)N/N=C/c1cccc(F)c1,14.1
7,Cc1ccc(/C=C2/NC(=O)N(Cc3ccccc3F)C2=O)s1,12
8,CCOC(=O)C1=C(COC(=O)CNC(=O)c2ccccc2F)NC(=O)NC1C (stereo not shown),7.48
9,COc1ccc(N2CC(C(=O)NNC(=O)c3ccc(Br)cc3)CC2=O)c(OC)c1 (stereo not shown),5.14
10,CCN(CC)CCCN=C(C)c1c(O)n(C2CCCCC2)c(=O)[nH]c1=O,-22.1
11,CCc1nn(CCCC(=O)N2CCN(c3ccc(OC)cc3)CC2)c(=O)c2cc3occc3n12,-0.618
12,CCOC(=O)C(C)Oc1cccc2c(=O)n(CC(=O)Nc3ccc(OCC)cc3)ccc12 (stereo not shown),1.46
13,O=C(Cc1cccc(NC(=O)C2CCN(C(=O)C3CCCCC3)CC2)c1)Nc1cccc(C(=O)N2CCCC2)c1,5.8
14,Nc1ccc(/C=C/C(=O)c2ccco2)cc1,1.26
15,COc1ccc(CN2CCN(C3CCOCC3)CC2CCO)c(C)c1C (stereo not shown),15.2
16,CC(OC(=O)/C=C/c1ccccc1)C(=O)Nc1ccc(C(N)=O)cc1 (stereo not shown),10.3
17,Cc1cc(C(C)c2ccccc2)c(O)c(CN2CCOCC2)c1C (stereo not shown),15.6
18,CC(C)C[C@@H](CO)N(Cc1ccccc1)S(=O)(=O)N(Cc1ccccc1)[C@H](CO)CC(C)C,15.7
19,O=C(c1ccc2oc(Cc3ccc(Cl)cc3)nc2c1)N1CCCCC1CCO (stereo not shown),6.56
20,CCc1ccc(CN(C)C(=O)c2cc(COc3cccc4cnccc34)on2)cc1,6.54
21,O=C(CCc1nnc(-c2ccc3c(c2)OCO3)o1)NC(c1ccccn1)C(F)(F)F (stereo not shown),8.3
22,CCC(c1nnnn1C(C)(C)C)N1CCN(Cc2ccccc2OC)CC1.Cl (stereo not shown),7.97
23,CC(=O)NCCn1c(SCC(=O)NCCc2ccc(S(N)(=O)=O)cc2)nc2ccccc2c1=O,10.6
24,Cc1csc(NC(=O)CSc2ccc3nnc(CCNS(=O)(=O)c4ccccc4)n3n2)n1,13.1
25,COC(=O)C1=C(C)NC(C)=C(C(=O)OC)C1c1ccc(OC(=O)c2ccco2)cc1,8.64
26,CCOc1ccc(C2C(C(=O)c3ccco3)=C(O)C(=O)N2Cc2cccnc2)cc1 (stereo not shown),11.7
27,CCCC(=O)N1CCN(c2ccc(NC(=S)NC(=O)c3cccc(C)c3)cc2)CC1,9.45
28,Cc1nccn1CC(=O)N/N=C/c1cccs1,16.7

row,SMILES,"hERG current change (%, negative = inhibition) at 1uM [%]"
1,CNC(=S)N/N=C/c1ccc(-c2ccc(C(=O)O)cc2)o1,7.89
2,O=C(ONC1=NCCCCC1)c1cccc([N+](=O)[O-])c1,11.8
3,COC(=O)c1ccccc1NC(=O)N1CCN(c2ccccc2F)CC1,4.17
4,COc1ccc(C(=O)Nc2cc(C)on2)cc1,16.6
5,Cc1cccc(C(=O)NNC(=O)CCCCC(=O)NNC(=O)c2cccc(C)c2)c1,12.8
6,CCCNS(=O)(=O)c1ccc(OCC(=O)Nc2ccc3c(c2)OCO3)cc1,12.7
7,COc1ccc(C(C(=O)NCc2ccc(F)cc2)N(Cc2cccnc2)C(=O)c2snc(C(N)=O)c2N)cc1 (stereo not shown),-4.6
8,O=C1NC(=O)C2(COC3(CCCC3)OC2)S1,8.97
9,COc1ccc(C(=O)/C=C\c2ccc(NC(=O)c3cccs3)cc2)cc1,9.76
10,CCc1ccc2oc(-c3ccc(OC)cc3)cc(=[NH+]c3c(C)n(C)n(-c4ccccc4)c3=O)c2c1.F[B-](F)(F)F,-33.7
11,Cc1ccc(NC(=O)CCNS(=O)(=O)c2ccccc2)c(C(=O)c2ccccc2)c1,21.4
12,CN(CCn1ccnc1)Cc1cn(Cc2ccccc2)nc1-c1ccc2c(c1)OCO2,15.4
13,COc1ccccc1N/N=C(\C#N)C(=N)N1CCOCC1,9.2
14,O=C(/C=C/c1c(Cl)cccc1Cl)n1cccn1,11.5
15,CC(Nc1ccccc1)c1cccnc1 (stereo not shown),4.59
16,O=[N+]([O-])c1ccccc1S(=O)(=O)n1cnc2ccccc21,14.6
17,NS(=O)(=O)c1ccc(CNC(=O)c2ccc(Br)o2)cc1,1.09
18,c1ccc(-n2nnnc2N2CCOCC2)cc1,7.82
19,O=C(Cc1ccccc1)N/N=C/C=C/c1ccccc1[N+](=O)[O-],12.5
20,COc1ccc(-n2cc(CNCC3CCOCC3)c(-c3cccc(F)c3)n2)cc1,-8.59
21,Cc1ccn2cc(-c3ccc(O)c(O)c3)nc2c1.Cl,10.5
22,Cl.OC(CN1C2=NCCN2c2ccccc21)c1ccccc1 (stereo not shown),-5.32
23,CCOC(=O)N1CCN(C(=O)c2cccc(NC(=O)c3ccco3)c2)CC1,1.9
24,Cc1cccc(CC(=O)N2CCCC2)c1,12.6
25,Cn1c(SCC(=O)NC2CCCCCC2)nnc1-c1cccs1,-9.47
26,CCOc1ccc(N=Cc2c(O)c3ccccc3oc2=O)cc1,7.72
27,COc1cc2c(cc1NC(=O)C(C)Sc1ccc(NC(C)=O)cc1)oc1ccccc12 (stereo not shown),6.08
